From the RNAGym collection of RNA variant scans (doi:10.1093/nar/gkz1192)
Read counts are not given, so values of variants with three or more changes are uncertain.

B1: CPEB3 Ribozyme (parent)
chain: UAACAGGGGGCCACAGCAGAAGCGUUCACGUCGCAGCCCCUGUCAGAUUCUGGUGAAUCUGCGAAUUCUGCUGUAUAUCUC

Variants of: B1
Experiment: self-cleavage, relative activity (ratio to wild type); higher = more cleavage; in vitro, sequencing
How it was run: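 For each CPEB3 ribozyme variant, relative activity is its cleaved/total read fraction divided by the unmutated ribozyme's. Barcoded error-prone PCR libraries were transcribed by T7 RNA polymerase (5 hours, 37°C) and held in DNase I for 15 min before an EDTA stop, with cleavage occurring throughout. Template-switching reverse transcription and Illumina sequencing were used to read the RNAs. A 5-read minimum applied, and results are the mean of three batches.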

Variant | self-cleavage
A28G U41G A75G | 0.34
A28G U43A U69C U80A | 0.31
A28G U43C A64G A65U | 0.24
A28G U43C A77G | 0.19
A28G U43C U54A | 0.46
A28G U43C U66C | 0.22
A28G U43C U74G | 0.31
A28G U48A U51A U74A | 0.43
A28G U48C A57G A65G | 0.19
A28G U48C A65G | 0.16
A28G U48C G55U | 0.2
A28G U48C G63A | 0.18
A28G U48C U60C | 0.03
A28G U48C U72C | 0.26
A28G U49A U54C | 0.21
A28G U49C A56U U66C U78C | 0.11
A28G U49C U78A | 0.15
A28G U51A G61A U69A | 0.2
A28G U51A U60A | 0.04
A28G U51A U80G | 0.55
A28G U51C G52U | 0.63
A28G U51C U72C C81U | 0.8
A28G U51C U80C | 0.73
A28G U54A A57G U66C | 0

Variant | self-cleavage
A28G U54A A57U | 0.53
A28G U54A A65G | 0.21
A28G U54C A65G | 0.17
A28G U54C U67C U80C | 0.15
A28G U54C U76C | 0.58
A28G U60A A75U U80C | 0.42
A28G U60C A64U U80G | 0.13
A28G U60C C71A U72C U78A | 0.13
A28G U60C U74C A77G | 0.22
A28G U66C A75U | 0.08
A28G U66C U67C U69G U74C | 0.15
A28G U66C U74C | 0.33
A28G U67A U78C U80A | 0.39
A28G U72A U78C | 0.31
A28G U72C U78C | 0.69
A28G U74A A75G | 0.69
A28U A35G U41A U72C | 0.17
A28U A35G U54C A77G | 1.26
A28U A35G U66C | 0.87
A28U A35G U69A | 0.76
A28U A35U A57G U67A A77U | 0.11
A28U A35U A75C | 0.44
A28U A35U U43A C44U U54A A64G | 0.13
A28U A45U G53A U60C A65G | 0.14

Variant | self-cleavage
A28U A47U A57G U72A | 0.11
A28U A47U U69C | 0.39
A28U A56G A64U U80C | 0.31
A28U A56G A65G A77U | 0.15
A28U A56G A77U | 0.73
A28U A56G U60A A65U | 0.3
A28U A56G U67C | 0.19
A28U A56G U69C | 0.31
A28U A57G U76C | 0.51
A28U C29U A35U U43C U51C A64U | 0.07
A28U C29U A65G | 0.09
A28U C32A A47U U51A U54C U60C U72C | 0.05
A28U C32G U58A | 0.06
A28U C34U U48C | 0.45
A28U C37A A64G A65G A75G | 0.07
A28U C38U U49C U54A U76C | 0.12
A28U C39A A45C U58C | 0.13
A28U C39G A47C U72A | 0.09
A28U C40A G63U | 0.22
A28U C40A U69C | 0.09
A28U C40G U41C U58C | 0.09
A28U C40U U49C U54C A56G A65G | 0.07
A28U C40U U67A | 0.16
A28U C44U A45G U51A C71A | 0.12

Variant | self-cleavage
A28U C59A U67C | 0.14
A28U G30C A35G A56G U78C | 0.07
A28U G30C G33U U54C A75U | 0.13
A28U G33U U76C | 0.43
A28U G46U C62U | 0.15
A28U G52A A56G | 0.63
A28U G55U A64G | 0.59
A28U G61A A77U | 0.61
A28U U31A C40U U48C U72A | 0.19
A28U U31C A45G U67A | 0.1
A28U U31C A64G A65G U80A | 0.09
A28U U31C C38U A57G U78C | 0.09
A28U U31G U51C | 0.64
A28U U41A A45U A57G U58C | 0.15
A28U U41A A47G U72C | 0.13
A28U U41A U49A U74A | 0.1
A28U U41A U60C U69C U72C | 0.06
A28U U41C A47G U51A U69C | 0.57
A28U U41C U60A | 0.32
A28U U43C A45G U72C | 0.5
A28U U43C A56U U58C U69C | 0.08
A28U U43C A65G A77G | 0.15
A28U U43C U51C | 0.64
A28U U51A A56U U69C | 0.26

Variant | self-cleavage
A28U U51A U58C | 0.25
A28U U51C G61C U69A A77U U80C | 0.33
A28U U54A A56G | 0.55
A28U U54C G55C | 0.36
A28U U54G U58C U66C | 0.07
A28U U58A C68G | 0.11
A28U U58C C62A U78C | 0.16
A28U U60A A65G | 0.3
A28U U60A U72C | 0.33
A28U U60C U69A | 0.19
A28U U60C U74A | 0.41
A28U U67A U72C | 0.29
A28U U72A U78C | 0.27
A28U U76A A77G | 0.76
C29A A35U A64U | 0.18
C29A A45U U54C U72G | 0.08
C29A A56U U60C U67C | 0.1
C29A A56U U67A | 0.39
C29A G52C U54A G73C | 0.89
C29A U43A A65G U74C | 0.23
C29A U48A U49C U78C U80A | 0.07
C29A U48C U78A | 0.18
C29A U51A U74C | 0.54
C29A U58A U78A | 0.2

Variant | self-cleavage
C29A U67C U80C | 0.13
C29G A35G U49C U51C U69A | 0.19
C29G A47U U49C A56C U78C | 0.08
C29G C32G U51C | 0.18
C29G G33A U41C | 0.12
C29G U41A C59G | 0.09
C29G U67C U69C | 0.21
C29U A35G A65G U78C | 0.65
C29U A35G C38G U51C U58C U74C A75G | 0.31
C29U A35G U43A A65G U78C | 0.68
C29U A35G U43C U54C A64U | 0.08
C29U A35U A57G | 0.2
C29U A45G A47G A57G | 0.09
C29U A45U A56C | 0.09
C29U A56G U72A | 0.34
C29U A56U U69A | 0.09
C29U A64U G70U | 0.07
C29U C40U U58C | 0.23
C29U U31A U43C U49A U54C U58A | 0.05
C29U U31G U67C | 0.11
C29U U41C A64G | 0.53
C29U U41C U54C U76C | 0.52
C29U U41C U76C | 0.54
C29U U43A U66C U78C U80C | 0.1

Variant | self-cleavage
C29U U43C A57G U72C | 0.1
C29U U43C U51C | 0.2
C29U U49C A56U U72C | 0.2
C29U U49C U69C | 0.11
C29U U49C U76G U78C | 0.06
C29U U51G A65G A77U | 0.17
C29U U51G A77U | 0.28
C29U U54C G55U A56G | 0.13
C29U U66C A75U U78C | 0.16
C29U U67C U72C | 0.1
G30A A35C U78C | 0.12
G30A A35G U49C U72A U78C | 0.06
G30A A35G U67C | 0.14
G30A A35U A64G | 0.1
G30A A35U U60A | 0.1
G30A A35U U67A | 0.15
G30A A45G U69A | 0.34
G30A A45U U72C | 0.1
G30A A56U U67C U72C | 0.32
G30A A57G U74A | 0.14
G30A A64U U80A | 0.31
G30A C39U A64U | 0.1
G30A G33A A64G U69C | 0.13
